Laboratory results as given in the supplement of paper PMC3334620.
Over roughly 33,000 sequences, “E-score (-0.5 to 0.5)” has its median near -0.013; the highest 2% begin near 0.3. The list shows a part of the results.

What follows are sequences tested against T1, Msn1 (UniProt P22148) (assay: PBM E-score (8-mer binding enrichment) (E-score (-0.5 to 0.5)); higher = stronger / more preferred TF binding; most listed sequences are background and not binding sites). Conditions: protein concentration: 200 nM; construct: GST-full length.
T1 sequence: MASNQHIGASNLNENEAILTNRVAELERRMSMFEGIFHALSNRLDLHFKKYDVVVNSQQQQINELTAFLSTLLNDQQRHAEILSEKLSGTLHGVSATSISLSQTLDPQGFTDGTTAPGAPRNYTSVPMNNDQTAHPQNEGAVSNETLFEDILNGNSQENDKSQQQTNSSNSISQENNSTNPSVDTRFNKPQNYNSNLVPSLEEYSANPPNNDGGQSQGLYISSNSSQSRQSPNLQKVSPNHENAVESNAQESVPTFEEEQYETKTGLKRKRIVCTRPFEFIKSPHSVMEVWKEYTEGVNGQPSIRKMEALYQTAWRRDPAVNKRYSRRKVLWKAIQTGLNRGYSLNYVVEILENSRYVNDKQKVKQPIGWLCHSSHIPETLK
Description: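 Universal 'all 10-mer' protein binding microarrays (Agilent AMADID 015681) probed with GST-tagged S. cerevisiae TFs (full-length or DBD) made by in vitro transcription/translation (PURExpress), about 100-200 nM. Bound TF was detected with fluorescent anti-GST. Each ungapped 8-mer (which stands for itself and its reverse complement) is scored by the PBM enrichment score (E-score), a modified Wilcoxon-Mann-Whitney statistic from -0.5 to +0.5, computed with the Universal PBM Analysis Suite. Scale: above 0.35 generally sequence-specific binding.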

Going from CCGGTCCC to AGCGTGGG, the “PBM E-score” value rises from -0.191 to -0.127.

Going from AATTAGCC to AGATTATG, the “PBM E-score” value rises from -0.0127 to -0.00564.

Compared with CCATCCCC, ACATCATA is higher in “PBM E-score” value: -0.313 for the first, 0.221 for the second.

Compared with CACATGCG, CCGTGAAA is higher in “PBM E-score” value: 0.095 for the first, 0.228 for the second.

First: CTTTACTA
Second: CGGGATCC
The “PBM E-score” value of the first is higher: 0.2 for the first, -0.00623 for the second.

Compared with ACGGTTTG, AACTTGCA is lower in “PBM E-score” value: -0.0669 for the first, -0.11 for the second.

Going from GCCCCTGA to GTGAGCCA, the “PBM E-score” value rises from -0.292 to 0.00843.

Going from CAATGGAA to ATAAATAA, the “PBM E-score” value rises from 0.059 to 0.291.

Going from ATAAGTAA to CCTCTTCA, the “PBM E-score” value falls from 0.149 to -0.0628.

Going from CACTACGA to GAAGCTGA, the “PBM E-score” value falls from 0.137 to -0.0495.

First: GGATTAGA
Second: AGATAACG
The “PBM E-score” value of the first is lower: -0.0602 for the first, 0.0416 for the second.

First: AGTTTTTG
Second: GATTTACA
The “PBM E-score” value of the first is higher: 0.147 for the first, 0.144 for the second.

First: GCACCGAC
Second: CACTGTAC
The “PBM E-score” value of the first is higher: 0.00089 for the first, -0.124 for the second.

Compared with CATAATGC, ACGTTGCT is lower in “PBM E-score” value: -0.0764 for the first, -0.0851 for the second.

Compared with GGCAGGAC, GAACGACA is lower in “PBM E-score” value: 0.263 for the first, 0.203 for the second.

Compared with GCCTCCCA, CGTTACCA is higher in “PBM E-score” value: -0.232 for the first, -0.0457 for the second.

First: CTTATTTC
Second: ATTACTTA
The “PBM E-score” value of the first is higher: 0.246 for the first, -0.0141 for the second.

Going from CCGTACCA to CCCCGACG, the “PBM E-score” value falls from 0.145 to -0.0676.

Going from CGGTGACA to AACATGTG, the “PBM E-score” value falls from 0.215 to 0.0694.

First: CATAGCAC
Second: CTAAACAG
The “PBM E-score” value of the first is higher: -0.0173 for the first, -0.0999 for the second.

Going from AACCCGCG to CTAAAGAG, the “PBM E-score” value falls from 0.127 to -0.0254.

Going from CTAGACGC to GAATCATA, the “PBM E-score” value rises from -0.232 to 0.00846.

Compared with AAAAGTGC, CATCACTA is higher in “PBM E-score” value: 0.0506 for the first, 0.0677 for the second.

Going from GTCATAAC to CCGGTTTA, the “PBM E-score” value falls from 0.114 to 0.0607.

Compared with AGGCCAGA, CCACCGGG is lower in “PBM E-score” value: -0.0204 for the first, -0.321 for the second.

Going from CATTTAAA to TTACTGAA, the “PBM E-score” value falls from 0.227 to 0.173.

First: GTACACGA
Second: CCGTATGA
The “PBM E-score” value of the first is higher: 0.28 for the first, 0.0752 for the second.

Compared with ATAGATAC, CGCGCTGA is lower in “PBM E-score” value: 0.149 for the first, -0.131 for the second.

Going from AGCAGTCC to GACATTCA, the “PBM E-score” value rises from -0.161 to 0.449.

First: GACAAATC
Second: CTAAGACA
The “PBM E-score” value of the first is higher: 0.473 for the first, 0.302 for the second.

First: CCGGTTTC
Second: GAAAAAAA
The “PBM E-score” value of the first is lower: 0.0262 for the first, 0.112 for the second.

First: AGGCCCTG
Second: CAAAAGGG
The “PBM E-score” value of the first is lower: -0.187 for the first, 0.03 for the second.

Compared with TCTGCTCA, GAAAAGAC is higher in “PBM E-score” value: -0.0709 for the first, 0.171 for the second.

Going from CGCCTTAC to GAAATGCA, the “PBM E-score” value rises from -0.0811 to 0.195.

Going from GCGCTGCC to CAATCGAG, the “PBM E-score” value rises from -0.316 to -0.14.

Going from CATTCCCC to ACCATGTC, the “PBM E-score” value rises from -0.022 to 0.218.

Compared with CGGTTTTA, CTGCTATA is higher in “PBM E-score” value: 0.0469 for the first, 0.157 for the second.

First: GCGTGACA
Second: CCTAAGCA
The “PBM E-score” value of the first is higher: 0.203 for the first, -0.105 for the second.

Going from CGCTGGAA to GGAAGTAA, the “PBM E-score” value rises from -0.188 to -0.0103.

Going from CCGAATTC to GGTAATTA, the “PBM E-score” value falls from 0.127 to 0.0347.

First: GACATGAC
Second: CGACGGCA
The “PBM E-score” value of the first is higher: 0.335 for the first, -0.188 for the second.

Compared with AAGCTCTA, ATCACGGG is lower in “PBM E-score” value: 0.149 for the first, -0.143 for the second.

Going from ATGACTTC to GACGGCAA, the “PBM E-score” value falls from 0.0818 to 0.0448.

First: CGCAAGCC
Second: ACTTTCCT
The “PBM E-score” value of the first is higher: -0.0744 for the first, -0.25 for the second.

Going from ACGCCTGA to GTGACTTA, the “PBM E-score” value rises from 0.0739 to 0.122.

Going from CATTTGGC to AAGGTAAG, the “PBM E-score” value falls from 0.0384 to -0.0721.

First: TATGCGCA
Second: GGCAGGGA
The “PBM E-score” value of the first is higher: -0.104 for the first, -0.161 for the second.

Going from CAATCGCG to ACGCGACC, the “PBM E-score” value rises from -0.0643 to 0.00523.

First: TAACCCAA
Second: CGTCGAGC
The “PBM E-score” value of the first is higher: 0.144 for the first, -0.0162 for the second.

First: TCATGGCA
Second: AGTAAGGA
The “PBM E-score” value of the first is lower: -0.0998 for the first, 0.0701 for the second.

First: CCCAATTC
Second: CAATAAGC
The “PBM E-score” value of the first is higher: 0.17 for the first, 0.00863 for the second.

Compared with AGTAGTAC, GGCATACC is lower in “PBM E-score” value: 0.23 for the first, -0.216 for the second.

Going from ATATGAGC to AACCGAGT, the “PBM E-score” value falls from -0.11 to -0.16.

Going from CAAAGCTG to AAGGTTAT, the “PBM E-score” value falls from 0.123 to -0.0984.

First: CCTGCGTA
Second: AACTGTTA
The “PBM E-score” value of the first is lower: -0.0595 for the first, 0.11 for the second.

First: GGCAAAGA
Second: GAGTGGCC
The “PBM E-score” value of the first is higher: 0.0839 for the first, -0.224 for the second.

Compared with AATGGTTC, ACACGTCG is lower in “PBM E-score” value: 0.0804 for the first, 0.0201 for the second.

Compared with AGTGCGTG, GCATCGCC is lower in “PBM E-score” value: 0.0541 for the first, -0.0362 for the second.

Compared with GACCGAAC, ATGAGACA is higher in “PBM E-score” value: -0.0277 for the first, 0.358 for the second.

First: AGATCATA
Second: CCGCAAGA
The “PBM E-score” value of the first is higher: 0.14 for the first, 0.0897 for the second.

Compared with ACAGAAAA, AAACTCCT is lower in “PBM E-score” value: 0.19 for the first, -0.191 for the second.

Compared with AATATAGA, GCATAGCA is lower in “PBM E-score” value: 0.136 for the first, -0.118 for the second.

First: AAGTTTAT
Second: AGGTGCAC
The “PBM E-score” value of the first is higher: 0.217 for the first, -0.0657 for the second.

Going from GACCTTGC to GGGGTCTA, the “PBM E-score” value rises from -0.244 to -0.175.

First: GTATCCCA
Second: CACCCATG
The “PBM E-score” value of the first is higher: -0.00874 for the first, -0.141 for the second.

First: CACTACTA
Second: AAAGGCAA
The “PBM E-score” value of the first is lower: -0.0134 for the first, 0.117 for the second.

Going from ATTCGCAA to CGAATGAC, the “PBM E-score” value rises from 0.0173 to 0.258.

Going from GTAAAGAA to CATTTAAG, the “PBM E-score” value falls from 0.194 to 0.133.

Compared with CGTAGCTC, AAGAAGGC is lower in “PBM E-score” value: 0.0345 for the first, -0.229 for the second.

Going from ACCGTTAC to GGGAATTA, the “PBM E-score” value rises from -0.0343 to 0.0821.

First: GACGCCTC
Second: CACTCTAA
The “PBM E-score” value of the first is higher: -0.0286 for the first, -0.0901 for the second.

Going from CATTATAG to GCAGTTAC, the “PBM E-score” value falls from 0.0223 to 0.00854.

Going from ATCTCTCG to GTTACAGA, the “PBM E-score” value falls from -0.0499 to -0.21.

First: ATACGAAT
Second: CCCACGCC
The “PBM E-score” value of the first is higher: 0.0593 for the first, -0.399 for the second.

First: TCGATTCA
Second: CCTCATCA
The “PBM E-score” value of the first is higher: -0.008 for the first, -0.209 for the second.

Compared with AGGGACTA, ATGGTGAC is lower in “PBM E-score” value: 0.108 for the first, -0.0377 for the second.

Going from AATTCCCG to AATGATGG, the “PBM E-score” value falls from 0.158 to 0.0357.

Compared with CAGAACTC, GATAACAC is higher in “PBM E-score” value: -0.0381 for the first, 0.0932 for the second.

Going from CAAGAATG to ACATACAC, the “PBM E-score” value rises from -0.0175 to 0.207.

Compared with AGGTATCC, CCCGGAGA is lower in “PBM E-score” value: 0.0502 for the first, -0.00367 for the second.

Compared with CGTGAAAA, GCTGACGA is lower in “PBM E-score” value: 0.186 for the first, -0.0445 for the second.

First: GCGTGCGA
Second: GTGCTGCA
The “PBM E-score” value of the first is higher: -0.0121 for the first, -0.105 for the second.

Compared with GGAGGAAA, ATCAGGGC is lower in “PBM E-score” value: -0.141 for the first, -0.323 for the second.

Going from CGATAGGC to CTTCATCA, the “PBM E-score” value falls from -0.0599 to -0.143.

Going from CACAAGGA to ACTGGGGG, the “PBM E-score” value falls from 0.0619 to -0.323.

Compared with GTTCGAGA, ATAAAGCC is lower in “PBM E-score” value: 0.11 for the first, -0.151 for the second.
